According to PubChem BioAssay (Tox21):
Results filed as inconclusive are left out. Unless noted, the call rests on the fitted dose curve; in most records, active means well fitted curve in the direction sought with a large enough effect in the repeat runs; inconclusive means weak or mixed curves; inactive means no such curve, though single readings can be large; an effect the other way counts as inactive or inconclusive. Some structures have more than one record in an assay (separate samples or runs), and their calls can disagree. Some entries of the source have several records that differ or are many. The list is limited to them. The source may hold further records. The records of an entry repeat one measurement in other runs, samples, wells, individuals or studies. Marks in square brackets tell the records apart. Letters hold for one entry only.

How the values were obtained:
[1] = qHTS assay for small molecules that induce genotoxicity in human embryonic kidney cells expressing luciferase-tagged ATAD5 - cell viability (AID 651634; calls by dose curve; further: nearly all actives have a fitted effect of over 25% in size); details: HEK293T ATAD5-luc cells viability, CellTiter-Fluor, 15.5 h; series mostly up to 83.3 µM
Method in brief: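 HEK293T cells expressing luciferase-tagged ATAD5 were exposed to compound or DMSO for 15.5 hr at 37C, 5% CO2. Viability was then read as live-cell protease activity by CellTiter-Fluor fluorescence after 30 min at 37C.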

[2] = molecular target: Androgen receptor (Homo sapiens) (UniProt P10275); assay: qHTS assay to identify small molecule agonists of the androgen receptor (AR) signaling pathway using the MDA cell line (AID 743040; further: nearly all actives have a fitted effect of over 20% in size); details: MDA-kb2 AR-luc cells, MMTV luciferase, 16 h; series mostly up to 70.3 µM
[3] = qHTS assay to identify small molecule antagonists of the androgen receptor (AR) signaling pathway using the MDA cell line - cell viability counter screen (AID 743041; further: nearly all actives have a fitted effect of over 45% in size); details: MDA-kb2 viability, CellTiter-Fluor, 16 h, cells co-treated with R1881 androgen agonist; series mostly up to 70.3 µM
Method in brief: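 Viability counter screen run alongside the AR antagonist reporter: cells seeded 5 h before compound, R1881 added, 16 h incubation at 37C without CO2, fluorescent CellTiter-Fluor signal quantified.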

[4] = qHTS assay to identify small molecule antagonists of the thyroid receptor (TR) signaling pathway (AID 743065); details: GH3.TRE-Luc, T3-stimulated luciferase inhibition, 23.5 h; series mostly up to 70.3 µM; further: nearly all actives have a fitted effect of over 55% in size
Method in brief: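 GH3.TRE-Luc rat pituitary cells carrying two TR response elements driving luciferase were plated for 4 h, given compound plus 1 nM T3 (final), and incubated 23.5 h at 37 C. ONE-Glo luminescence measured reporter inhibition; CellTiter-Fluor fluorescence tracked cytotoxicity.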
Potency means the concentration at half of the fitted maximal effect.

UniProt P10275, sequence (P10275 whole entry, looked up): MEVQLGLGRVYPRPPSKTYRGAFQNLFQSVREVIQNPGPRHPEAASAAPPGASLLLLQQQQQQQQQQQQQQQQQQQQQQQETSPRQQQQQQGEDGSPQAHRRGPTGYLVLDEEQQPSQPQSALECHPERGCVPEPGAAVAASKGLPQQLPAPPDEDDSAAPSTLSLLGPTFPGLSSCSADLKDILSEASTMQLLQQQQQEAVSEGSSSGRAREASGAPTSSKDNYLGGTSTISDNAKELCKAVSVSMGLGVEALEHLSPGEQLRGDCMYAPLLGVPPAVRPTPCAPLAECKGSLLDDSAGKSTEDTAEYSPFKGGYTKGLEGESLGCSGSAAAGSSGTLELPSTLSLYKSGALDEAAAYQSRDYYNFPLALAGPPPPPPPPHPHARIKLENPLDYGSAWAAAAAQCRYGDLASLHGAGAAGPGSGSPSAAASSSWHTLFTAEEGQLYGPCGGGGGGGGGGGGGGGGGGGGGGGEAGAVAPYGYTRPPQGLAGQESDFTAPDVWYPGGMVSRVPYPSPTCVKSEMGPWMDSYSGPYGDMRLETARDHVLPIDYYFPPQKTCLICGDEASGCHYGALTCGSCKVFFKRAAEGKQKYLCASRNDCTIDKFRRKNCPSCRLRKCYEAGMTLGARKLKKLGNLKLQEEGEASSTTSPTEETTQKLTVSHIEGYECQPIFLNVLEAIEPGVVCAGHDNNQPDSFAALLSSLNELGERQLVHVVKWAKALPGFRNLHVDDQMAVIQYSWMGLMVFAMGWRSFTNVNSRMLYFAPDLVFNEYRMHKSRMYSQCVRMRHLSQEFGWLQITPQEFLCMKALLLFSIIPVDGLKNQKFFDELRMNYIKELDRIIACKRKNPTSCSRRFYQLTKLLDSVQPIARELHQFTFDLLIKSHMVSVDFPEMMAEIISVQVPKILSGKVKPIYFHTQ

C=C1C(CCl)(CCl)C2(Cl)C(Cl)C(Cl)C1(Cl)C2(Cl)Cl (stereo not given)
Potency [1]: active: 29.8 µM [sample A] and inactive [sample B]

CON=C1C[C@]2(C[C@@H]3C[C@@H](C/C=C(\C)C[C@@H](C)/C=C/C=C4\CO[C@@H]5[C@H](O)C(C)=C[C@@H](C(=O)O3)[C@]45O)O2)O[C@H](/C(C)=C/C(C)C)[C@H]1C
Potency [2]: active: 596 nM [sample A] and inactive [sample B]

C[N+](C)(C)CCOP(=O)(O)OP(=O)([O-])OC[C@H]1O[C@@H](n2ccc(N)nc2=O)[C@H](O)[C@@H]1O
Potency [2]: inactive [sample A] and active: 29.8 µM [sample B]

CC[C@@]1([C@@H]2O[C@@H]([C@H]3O[C@@](O)(CO)[C@H](C)C[C@@H]3C)C[C@@H]2C)CC[C@H]([C@]2(C)CC[C@]3(C[C@H](O)[C@@H](C)[C@@H]([C@@H](C)[C@@H](OC)[C@H](C)C(=O)O)O3)O2)O1 (stereo in doubt)
Potency [3]: active: 3.76 µM [sample A] and inactive [sample B]

CC(C)(C)c1ccc2c(S(=O)(=O)O)c(C(C)(C)C)ccc2c1
Potency [4]: inactive [sample A] and active: 61.1 µM [sample B]
